Data reported in the supplement of paper PMC7826260.
Some of the results follow. One pool of 16,384 single-stranded DNAs met each Rep nickase domain in vitro for 1 h at 37 °C with 3 µM enzyme; only the middle of the 90-letter strands is printed. Numbers give uncut DNA relative to the enzyme-free pool, as log2; the lower, the more was cut; hits are not called. Because reads are shares of a total, they shift together; values above 0 arise when much of the pool is cut.

Assays:
Test in all cases: uncleaved DNA left, log2 of reads against the no-enzyme library (log2 ratio); higher = less cleavage (more negative = more Rep cleavage of the k-mer); sequences stand for … in CTCGTCCG…ACCGGAGA
[1] = test system: T1, Rep nickase domain of Muscovy duck circovirus
T1 sequence (protein, residues 1-111, tag omitted): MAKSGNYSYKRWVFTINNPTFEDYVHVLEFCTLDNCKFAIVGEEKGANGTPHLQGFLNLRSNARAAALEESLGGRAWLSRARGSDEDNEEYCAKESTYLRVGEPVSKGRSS
Procedure: (§1)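 A pool of 90-nt single-stranded DNAs with seven random bases just before the constant AC of the nick site (name = the seven bases) was cut by 3 µM recombinant His6-SUMO-tagged Rep nickase domain (300 nM DNA, 50 mM HEPES pH 8.0, 50 mM NaCl, 1 mM MnCl2, 1 h, 37 °C, three replicates). Uncut DNA was amplified and sequenced.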

[2] = test system: T2, Rep nickase domain of banana bunchy top virus
T2 sequence (protein, residues 1-94, tag omitted): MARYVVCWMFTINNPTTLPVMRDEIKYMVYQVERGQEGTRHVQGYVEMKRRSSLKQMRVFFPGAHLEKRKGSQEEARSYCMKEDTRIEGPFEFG
Procedure: as §1

[3] = test system: T3, Rep nickase domain of cabbage leaf curl virus
T3 sequence (protein, residues 1-116, tag omitted): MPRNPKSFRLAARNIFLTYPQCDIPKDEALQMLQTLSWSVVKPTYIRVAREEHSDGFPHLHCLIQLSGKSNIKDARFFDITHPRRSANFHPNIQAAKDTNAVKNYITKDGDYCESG
Procedure: as §1

[4] = test system: T4, Rep nickase domain of chickpea chlorotic dwarf virus
T4 sequence (protein, residues 1-124, tag omitted): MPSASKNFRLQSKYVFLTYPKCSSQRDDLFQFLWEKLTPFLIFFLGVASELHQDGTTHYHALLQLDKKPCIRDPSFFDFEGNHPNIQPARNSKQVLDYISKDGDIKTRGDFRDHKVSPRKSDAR
Procedure: as §1

[5] = test system: T5, Rep nickase domain of faba bean necrotic yellows virus
T5 sequence (protein, residues 1-98, tag omitted): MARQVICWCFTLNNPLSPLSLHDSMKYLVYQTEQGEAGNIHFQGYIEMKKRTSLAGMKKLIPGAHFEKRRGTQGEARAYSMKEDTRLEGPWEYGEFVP
Procedure: as §1

[6] = test system: T6, Rep nickase domain of maize striate mosaic virus
T6 sequence (protein, residues 1-117, tag omitted): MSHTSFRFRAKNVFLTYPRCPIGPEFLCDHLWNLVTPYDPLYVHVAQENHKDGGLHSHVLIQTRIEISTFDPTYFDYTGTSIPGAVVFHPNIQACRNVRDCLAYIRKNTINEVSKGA
Procedure: as §1

[7] = test system: T7, Rep nickase domain of porcine circovirus 2
T7 sequence (protein, residues 2-116, tag omitted): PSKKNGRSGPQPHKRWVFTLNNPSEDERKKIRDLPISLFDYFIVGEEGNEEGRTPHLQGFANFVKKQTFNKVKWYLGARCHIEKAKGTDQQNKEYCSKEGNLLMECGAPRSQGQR
Procedure: as §1

[8] = test system: T8, Rep nickase domain of tomato golden mosaic virus
T8 sequence (protein, residues 1-124, tag omitted): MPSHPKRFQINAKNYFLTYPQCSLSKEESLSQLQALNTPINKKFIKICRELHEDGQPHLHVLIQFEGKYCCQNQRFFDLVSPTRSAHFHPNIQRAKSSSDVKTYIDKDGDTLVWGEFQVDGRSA
Procedure: as §1

[9] = test system: T9, Rep nickase domain of tomato yellow leaf curl virus
T9 sequence (protein, residues 1-136, tag omitted): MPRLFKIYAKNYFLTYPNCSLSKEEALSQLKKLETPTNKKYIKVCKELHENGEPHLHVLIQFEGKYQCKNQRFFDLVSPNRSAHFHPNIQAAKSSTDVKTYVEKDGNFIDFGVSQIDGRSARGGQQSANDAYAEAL
Procedure: as §1

[10] = test system: T10, Rep nickase domain of wheat dwarf virus
T10 sequence (protein, residues 1-137, tag omitted): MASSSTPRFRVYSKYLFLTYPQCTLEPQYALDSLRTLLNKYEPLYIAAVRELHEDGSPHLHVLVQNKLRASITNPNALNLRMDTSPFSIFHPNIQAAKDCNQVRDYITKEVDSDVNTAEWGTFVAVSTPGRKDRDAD
Procedure: as §1

Sequence | uncleaved DNA left (log2) [1] | uncleaved DNA left (log2) [2] | uncleaved DNA left (log2) [3] | uncleaved DNA left (log2) [4] | uncleaved DNA left (log2) [5] | uncleaved DNA left (log2) [6] | uncleaved DNA left (log2) [7] | uncleaved DNA left (log2) [8] | uncleaved DNA left (log2) [9] | uncleaved DNA left (log2) [10]
GTATAGG | 0.102 | 0.0389 | 0.423 | 1.21 | 0.212 | 1.44 | 0.179 | 0.167 | 0.0467 | 0.0957
TGTCTTT | -0.0265 | -0.0697 | 0.024 | -1.2 | -0.0513 | 0.236 | -0.474 | -0.123 | 0.00594 | -0.115
AAGGGGG | 0.132 | 0.00531 | -0.125 | 0.115 | 0.0493 | -0.489 | 0.284 | 0.19 | 0.00564 | 0.0332
GTAGAAC | -0.00733 | 0.023 | 0.388 | 0.831 | 0.000936 | 1.58 | 0.0102 | 0.00168 | -0.0383 | 0.162
GGACGTA | -0.0583 | 0.0723 | 0.753 | 1.82 | -0.0441 | 2.15 | 0.105 | -0.0387 | 0.031 | 0.124
TAACGTA | -0.0383 | -0.223 | -1.57 | -2.56 | 0.0129 | -0.733 | -0.197 | -0.0776 | -0.045 | -0.923
GGATGTG | 0.107 | -0.0215 | -0.247 | -0.0693 | 0.0267 | -0.382 | 0.173 | -0.00341 | 0.0425 | -0.00177
TAGGTTC | -0.00755 | -0.0567 | 0.226 | -0.0184 | -0.0799 | 1.01 | -0.0711 | -0.068 | -0.0144 | 0.0543
ATAGGCC | 0.0516 | -0.067 | -0.0041 | 0.266 | -0.0658 | -0.355 | -0.0847 | 0.022 | 0.0217 | 0.0442
GTGTGCC | 0.0218 | 0.108 | 0.288 | 0.841 | -0.0477 | 1.77 | 0.116 | 0.12 | 0.0152 | 0.111
GACTCCA | 0.0851 | 0.139 | 0.278 | -1.03 | 0.13 | 0.891 | -1.44 | 0.134 | 0.167 | 0.309
AATATGA | 0.0964 | 0.119 | 0.133 | 0.0255 | 0.0445 | -0.755 | 0.0484 | 0.115 | 0.0847 | 0.0932
AATATTA | -0.0195 | -0.105 | -0.862 | -2.51 | -0.099 | -1.03 | -0.34 | -0.115 | -0.198 | -0.132
CCCGAAC | -0.124 | -0.311 | -0.0132 | -0.275 | -0.163 | -0.463 | 0.0237 | -0.175 | -0.122 | -0.0911
AGCAGCC | 0.084 | 0.0406 | 0.00713 | 0.261 | -0.0233 | -0.197 | 0.0799 | 0.0347 | 0.0735 | 0.0931
CACGGCA | -0.0506 | 0.081 | -0.34 | -0.662 | 0.0397 | -0.958 | -0.311 | 0.0173 | 0.0782 | -0.1
AGTTTTG | 0.213 | 0.00857 | -0.0583 | -0.0737 | 0.156 | -0.551 | 0.189 | 0.0293 | -0.0284 | 0.105
CCGACAC | 0.139 | 0.091 | 0.104 | 0.385 | 0.196 | -0.191 | 0.135 | 0.0806 | 0.0693 | 0.221
CCGGGGC | -0.105 | -0.157 | 0.762 | 1.14 | -0.111 | 2.11 | 0.096 | -0.0176 | -0.0912 | -0.0799
CAGTACC | -0.065 | -0.113 | -0.0808 | -0.727 | -0.452 | -0.236 | -2.79 | -0.0507 | 0.0953 | 0.14
TTCCGTC | 0.0808 | -0.191 | 0.11 | -0.229 | -0.0569 | -0.628 | -0.0165 | -0.234 | -0.15 | -0.156
ATCGATC | 0.0261 | -0.091 | -0.148 | 0.0766 | 0.0225 | -0.47 | -0.08 | -0.146 | -0.115 | -0.0443
ATTCTTA | -0.206 | -0.163 | -0.134 | -1.43 | -0.107 | -0.626 | -0.4 | -0.0782 | -0.019 | 0.0276
GACCTGT | 0.0978 | 0.134 | 0.246 | 0.384 | 0.00847 | 0.889 | 0.0892 | 0.0414 | 0.041 | -0.0576
CTTTCGA | 0.0122 | 0.0962 | -0.648 | -0.799 | 0.0466 | -1.17 | 0.0239 | -0.042 | 0.0283 | -0.0472
ACGTCGG | 0.0218 | -0.155 | -0.288 | -0.0866 | -0.0502 | -0.449 | 0.121 | 0.0737 | -0.264 | -0.167
CCGCACA | 0.0731 | 0.0385 | -0.0804 | -0.953 | -0.00811 | -0.236 | 0.0275 | -0.0606 | -0.0497 | 0.0234
ACTCCCT | -0.103 | -0.0507 | -0.18 | -1.83 | 0.0604 | -0.343 | -0.52 | 0.0852 | -0.102 | 0.0314
GCTCCAT | 0.108 | 0.107 | 0.344 | 0.584 | 0.138 | 0.826 | 0.17 | 0.145 | 0.255 | 0.243
TGAGCGT | 0.0265 | -0.0848 | -0.413 | -0.487 | 0.092 | -0.925 | 0.0498 | -0.0246 | -0.0336 | -0.158
